“Also recorded” adds a separate entry of the source. The source holds more than one record for some entries. The other results are left out here. How the calls were made is not given here. An entry can have further records. Values given together do not match, cause unknown; dose, time, organism, isomer or construct need not be as stated for each record. Records carry a tag for their origin. Letters hold for one entry only.
System: CCRIS mutagenicity, Ames/micronucleus/aberration tests
Assay: CCRIS mutagenicity studies

CC(=O)Nc1ccc(C(=O)CCl)cc1
mutagenic call (Test System: AMES SALMONELLA TYPHIMURIUM, Strain/Indicator: TA98, Metabolic Activation: MOUSE, LIVER, S-9, AROCLOR 1254, Method: STANDARD PLATE): inactive; negative and active; positive
mutagenic call (Test System: AMES SALMONELLA TYPHIMURIUM, Strain/Indicator: TA98, Metabolic Activation: NONE, Method: STANDARD PLATE): inactive; negative and active; positive
mutagenic call (Test System: AMES SALMONELLA TYPHIMURIUM, Strain/Indicator: TA1537, Metabolic Activation: HAMSTER, LIVER, S-9, AROCLOR 1254, Method: STANDARD PLATE): inactive; negative and active; positive
mutagenic call (Test System: AMES SALMONELLA TYPHIMURIUM, Strain/Indicator: TA1537, Metabolic Activation: MOUSE, LIVER, S-9, AROCLOR 1254, Method: STANDARD PLATE): inactive; negative and active; positive
mutagenic call (Test System: AMES SALMONELLA TYPHIMURIUM, Strain/Indicator: TA1537, Metabolic Activation: NONE, Method: STANDARD PLATE): inactive; negative and active; positive
mutagenic call (Test System: AMES SALMONELLA TYPHIMURIUM, Strain/Indicator: TA1537, Metabolic Activation: RAT, LIVER, S-9, AROCLOR 1254, Method: STANDARD PLATE): inactive; negative and active; positive
mutagenic call (Test System: AMES SALMONELLA TYPHIMURIUM, Strain/Indicator: TA1537, Metabolic Activation: RAT, LIVER, S-9, Method: STANDARD PLATE): inactive; negative and active; positive
mutagenic call (Test System: AMES SALMONELLA TYPHIMURIUM, Strain/Indicator: TA1538, Metabolic Activation: HAMSTER, LIVER, S-9, AROCLOR 1254, Method: STANDARD PLATE): inactive; negative and active; positive
mutagenic call (Test System: AMES SALMONELLA TYPHIMURIUM, Strain/Indicator: TA1538, Metabolic Activation: HAMSTER, LIVER, S-9, Method: STANDARD PLATE): inactive; negative and active; positive
mutagenic call (Test System: AMES SALMONELLA TYPHIMURIUM, Strain/Indicator: TA1538, Metabolic Activation: MOUSE, LIVER, S-9, AROCLOR 1254, Method: STANDARD PLATE): inactive; negative and active; positive
mutagenic call (Test System: AMES SALMONELLA TYPHIMURIUM, Strain/Indicator: TA1538, Metabolic Activation: MOUSE, LIVER, S-9, Method: STANDARD PLATE): inactive; negative and active; positive
mutagenic call (Test System: AMES SALMONELLA TYPHIMURIUM, Strain/Indicator: TA1538, Metabolic Activation: NONE, Method: STANDARD PLATE): inactive; negative and active; positive

Oc1ccccc1-c1ccccc1
mutagenic call (Test System: MOUSE LYMPHOMA, Strain/Indicator: L5178Y (TK+/TK-), Metabolic Activation: NONE, Method: SUSPENSION/PLATE): active; positive [study A]; also recorded: inactive; negative. reevaluation of results: negative [study B]
mutagenic call (Test System: MOUSE LYMPHOMA, Strain/Indicator: L5178Y (TK+/TK-), Metabolic Activation: RAT, LIVER, S-9, AROCLOR 1254, Method: SUSPENSION/PLATE): active; positive [study A]; also recorded: active; positive. reevaluation of results: positive [study B]

Cc1cnc2ccccc2c1
mutagenic call (Test System: AMES SALMONELLA TYPHIMURIUM, Strain/Indicator: TA100, Metabolic Activation: RAT, LIVER, S-9, Method: PREINCUBATION): active; positive [study A] and inactive; negative [study B]

Reference: PubChem BioAssay AID1259407 (Chemical Carcinogenesis Research Information System (CCRIS), 2018)
